Measurements: PubChem BioAssay AID686978 (National Center for Advancing Translational Sciences (NCATS), 2013)
The campaign covered roughly 420,000 compounds. About 64,000 (15%) were called active. The shares of active, inactive and inconclusive entries below differ from those in the screen. Calls follow the shape of the dose curve; as a rule, active = well fitted inhibition curve with a large enough effect; inconclusive = small, poorly fitted or top-dose-only effect; inactive = flat fitted curve, though single readings scatter. No potency is given beside an inconclusive call; the fits are too rough.

experiment: qHTS for Inhibitors of human tyrosyl-DNA phosphodiesterase 1 (TDP1): qHTS in cells in absence of CPT; details: DT40 Tdp1-/- hTDP1 cells, no CPT, ATP luminescence, 48 h; activity change, negative = growth inhibition: at 46.2 µM (top of the series) unless noted; also: nearly all actives have a fitted effect of over 55% in size
Outline: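 Luminescent ATP content (CellTiter-Glo) served as the growth readout. Knockout chicken DT40 cells expressing human TDP1 were exposed to compounds without camptothecin for a minimum 48 hr at 37 °C.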
% is scaled to controls: 0 for no effect and ±100 for the full control effect; potency is read from the fitted curve at half-maximal effect; tags tell the direction and shape of the fitted curve.

Row | Structure (SMILES) | activity change, negative = growth inhibition | Potency
1 | Cc1nc(-c2cccc(F)c2)sc1CCNC(=O)Cc1ccc(F)cc1 | inconclusive: -30.1% [inhibitor] | 
2 | c1ccc2nc3c(cc2c1)CCCCC3 |  | active: 13 µM
3 | C/C(=N\NC(=O)C(C)Sc1ccccc1)c1ccc([N+](=O)[O-])cc1 (stereo not given) |  | active: 4.11 µM
4 | Cc1cccnc1NC(=O)CSc1ccc2c(c1)OCCO2 |  | inconclusive [inhibitor, single point]
5 | CN(Cc1cnccn1)Cc1nc(Cc2ccccc2F)no1 |  | inactive
6 | N#C/C(=C/c1ccc(O)cc1)c1nc(-c2ccc(-c3ccccc3)cc2)cs1 |  | inconclusive [inhibitor, partial curve]
7 | O=C(Nc1ccccc1F)c1cc(-c2ccco2)nc2ccccc12 |  | inconclusive [inhibitor, single point]
8 | Cc1nc2ccccc2n1C(c1cccnc1)c1nc2ccccc2[nH]1 (stereo not given) |  | inactive
9 | CCC(=O)NC1=C(NC(C)c2ccccc2)C(=O)c2ccccc2C1=O (stereo not given) |  | inconclusive [inhibitor, single point]
10 | Cc1ccccc1OCCC(=O)Nc1ccc(N2CCOCC2)cc1N1CCOCC1 |  | inactive
11 | Cc1ccccc1S(=O)(=O)Cc1ccc(C(=O)NCc2ccc(F)cc2)o1 |  | inconclusive [inhibitor, single point]
12 | CN(C)C(CNC(=O)c1ccc(C(=O)c2ccccc2)cc1)c1ccccc1 (stereo not given) |  | inconclusive [inhibitor, partial curve]
13 | Cn1c(C(=O)NCc2ccccc2Cl)cc2sc(Cl)cc21 |  | inconclusive [inhibitor, single point]
14 | O=C(c1ccc(Cl)cc1)C1CCCN(Cc2cnn(-c3ccccc3)c2)C1 (stereo not given) |  | inconclusive [inhibitor, single point]
15 | CCOc1ccc(N2CC(C(=O)Nc3ccc(S(=O)(=O)N4CCOCC4)cc3)CC2=O)cc1 (stereo not given) |  | inactive
16 | Cc1ccc(OCCn2c(CNc3ccccc3C)nc3ccccc32)cc1 |  | inconclusive [inhibitor, single point]
17 | CC(C)(C)c1ccc(NC(=O)COC(=O)c2ccc3ncsc3c2)cc1 |  | inconclusive [inhibitor, single point]
18 | COC(=O)c1[nH]c2cccc(OC)c2c1NC(=O)CCN1CCC(C)CC1 |  | inconclusive [inhibitor, single point]
19 | COc1cccc(CNC(=O)CN(c2cc(C)cc(C)c2)S(=O)(=O)c2c(C)noc2C)c1 |  | inconclusive [inhibitor, partial curve, poor fit]
20 | O=C1[C@H]2[C@@H](c3ccccc3)N[C@]3(CCCN(Cc4ccc(Br)cc4)C3=O)[C@H]2C(=O)N1Cc1ccccc1 |  | active: 23.1 µM
21 | Cc1ccc(-c2cc(C(=O)N3N=C(C(F)F)CC3(O)C(F)F)c3ccccc3n2)cc1C (stereo not given) |  | inconclusive [inhibitor, single point]
22 | COc1ccc(-n2nc3c(N4CCC(C(=O)NCCc5ccccc5C)CC4)nnc(C)c3c2C)cc1 |  | active: 16.4 µM
23 | COc1cc(C(=O)NC2CCCc3c2cnn3-c2ccccc2F)cc(OC)c1OC (stereo not given) |  | active: 2.91 µM
24 | O=C(O)CCNc1nc(-c2ccccc2)nc2ccccc12 |  | inconclusive [inhibitor, single point]

Row | Structure (SMILES) | activity change, negative = growth inhibition | Potency
25 | O=C1c2ccccc2CCC12OC2c1ccc([N+](=O)[O-])cc1 (stereo not given) |  | inconclusive [inhibitor, single point]
26 | Cn1c(=O)c2c(ncn2CC(=O)Nc2cc(S(=O)(=O)N3CCCCC3)ccc2Cl)n(C)c1=O |  | inconclusive [inhibitor, partial curve]
27 | CCOC(=O)C(C(=O)OCC)C(C)(C)/C(C)=N\Nc1ccc([N+](=O)[O-])cc1[N+](=O)[O-] |  | inconclusive [inhibitor, single point]
28 | S=C(N/N=C/c1ccccc1)N1CCOCC1 |  | inconclusive [inhibitor, full curve]
29 | Cc1cc(NC(=O)c2cnn(-c3ccccc3)c2-n2cccc2)ccc1Br |  | inconclusive [inhibitor, single point]
30 | Cc1ccc(C)c(N=Nc2ccc(O)c3ncccc23)c1 |  | active: 2.06 µM
31 | CC(=O)Nc1ncc(N=Nc2cccc(C(F)(F)F)c2)s1 | inconclusive: -36.5% [inhibitor] | 
32 | COC(=O)CCc1c(C)c(C(=O)c2ccc(F)cc2)c2ccccn12 |  | inactive
33 | COc1ccc(/C(O)=C2/C(=O)C(=O)N(c3ccccn3)C2c2ccc(OC)cc2)cc1 (stereo not given) |  | inactive
34 | Cc1noc(C)c1-c1ccc(C(=O)NCc2ccncc2)c2occc12 |  | active: 8.2 µM
35 | CC(C)NC(=O)NC(=O)COc1ncnc2sccc12 |  | inconclusive [inhibitor, single point]
36 | COc1cc(=O)n2c(c1C(=O)N(C)Cc1nccs1)CCN(Cc1c(F)ccc(F)c1F)CC2 |  | inactive
37 | COc1cccc(-c2nc3c(C#N)c[nH]n3c2NC2CCCCC2)c1 |  | inconclusive [inhibitor, single point]
38 | COC(=O)c1scc2c(Oc3ccccc3)cc(C(F)(F)F)nc12 |  | inconclusive [inhibitor, full curve]
39 | Cc1nnc2ccc(-c3ccc(NC(=O)c4ccco4)cc3)nn12 |  | inconclusive [inhibitor, full curve, poor fit]
40 | COc1ccc(-c2csc3ncnc(Nc4ccc(OC)cc4OC)c23)cc1 |  | inconclusive [inhibitor, partial curve]
41 | COc1cccc(C(=O)C2CCCN(Cc3cccc(OCCO)c3)C2)c1 (stereo not given) |  | inactive
42 | CCc1cccc(NC(=O)Cn2c(=O)n(CC3CCC(C(=O)NC)CC3)c(=O)c3sccc32)c1 (stereo not given) |  | inconclusive [inhibitor, single point]
43 | COc1ccc(NC(=O)CS(=O)CC(=O)Nc2cccnc2)cc1 (stereo not given) |  | inactive
44 | O=C(NCc1nnnn1-c1ccc(Cl)cc1)C(=O)c1c[nH]c2ccccc12 |  | inactive
45 | CSc1nsc(SC)c1NC(=O)OCc1ccccc1 |  | inconclusive [inhibitor, single point]
46 | O=C(O[C@H]1[C@H](Cc2ccccc2)NS(=O)(=O)[C@H]2C[C@@H]3C=C[C@]12O3)c1ccc([N+](=O)[O-])cc1 |  | inconclusive [inhibitor, single point]
47 | CN(CC(=O)Nc1ccc(F)cc1)C(=O)Cn1cnc2ccc([N+](=O)[O-])cc2c1=O |  | inactive
48 | Cc1noc(C)c1S(=O)(=O)Nc1ccc(C(=O)N2CCN(c3ccc(F)cc3)CC2)cc1 |  | inactive

Row | Structure (SMILES) | activity change, negative = growth inhibition | Potency
49 | Cc1cccc(N(C)C(=O)C2CCC(CNS(=O)(=O)c3cccc4nsnc34)CC2)c1 (stereo not given) |  | inactive
50 | O=C(c1ccc(CNc2c(NC3CCCCC3)c(=O)c2=O)cc1)N1CCc2ccccc21 |  | inactive
51 | O=C(CSc1nnnn1-c1ccc(F)cc1)c1ccc(O)c(O)c1 |  | inconclusive [inhibitor, single point]
52 | Oc1ccc(C(=S)N2CCN(Cc3ccccc3)CC2)cc1 |  | inconclusive [inhibitor, single point]
53 | Cc1c(OCC(=O)N2CCC(C(N)=O)CC2)ccc2c1oc(=O)c1ccccc12 |  | inconclusive [inhibitor, partial curve, poor fit]
54 | COc1cccc(CNC(=O)Cn2c(=O)cc(C)c3c(C)nn(C)c32)c1OC |  | active: 18.4 µM
55 | CC(=O)c1ccccc1C(=O)N1CCCC(N2CCN(Cc3ccc4c(c3)OCO4)CC2)C1 (stereo not given) |  | inactive
56 | N#CC1=C(N)N(c2ccc(Cl)cc2)C2=C(C(=O)CCC2)C1c1cc(CN2CCOCC2)cs1 (stereo not given) |  | inconclusive [inhibitor, single point]
57 | CCOC(=O)c1c(NC(=O)CN2C(=O)C(=O)N(C(C)C)C2=O)sc(C)c1CC |  | inconclusive [inhibitor, single point]
58 | Clc1ccccc1CSc1ncccn1 |  | inactive
59 | CSc1cccc(NC(=O)c2cnccn2)c1 |  | inactive
60 | Cc1nc2c(OCc3cc(Cl)cc(Cl)c3)cccn2c1N(C)C(=O)CCC1CCCC1 |  | inconclusive [inhibitor, single point]
61 | CC(C)c1ccc(S(=O)(=O)c2nnn3c2nc(N2CCOCC2)c2sccc23)cc1 |  | inconclusive [inhibitor, single point]
62 | O=C(NCc1cccnc1)c1cc(C2CCCCN2C(=O)c2ccccc2)on1 (stereo not given) |  | inconclusive [inhibitor, single point]
63 | Cc1ccc(NC(=S)NNS(=O)(=O)c2ccc3ccccc3c2)cc1Cl |  | inactive
64 | O=C(CCc1ccncc1)N1CCCC(Nc2ccc(F)c(F)c2)C1 (stereo not given) | inconclusive: -32.5% [inhibitor] | 
65 | COc1ccc2[nH]c3c(c2c1)CCN1C(=O)C(CC(=O)NCC24CC5CC(CC(C5)C2)C4)C[C@H](C(=O)N2CCCCC2)[C@@]31C (stereo not given in full) |  | active: 18.4 µM
66 | CN(C)CCCNc1nc2cc(-c3cccc(C(F)(F)F)c3)sc2c(=O)n1C |  | inconclusive [inhibitor, single point]
67 | O=C1/C(=C\c2ccc(-c3ccccc3[N+](=O)[O-])o2)C(c2ccccc2)=NN1c1ccccc1 |  | inactive
68 | Cc1ccccc1OCC(=O)Nc1c(C)ccc2nsnc12 |  | inconclusive [inhibitor, single point]
69 | COC(=O)[C@]12CCCCC=C1N(Cc1ccccc1)C(=O)[C@H](CC(=O)N1CCSCC1)C2 |  | inconclusive [inhibitor, single point]
70 | Cc1ccc(C2CC(=O)C(C=NCCN3CCN(C(=S)Nc4ccc(F)cc4)CC3)=C(O)C2)cc1 (stereo not given) | inconclusive: -32.9% [inhibitor] | 
